Results as given in the supplement of paper PMC10126150.
Sequences with one replicate were seen in a single cluster, so their values are uncertain.

System: ATP
Assay: switch fluorescence ratio, 500 uM ATP over buffer (Cy3 cluster intensity, sum of 5 cycles each) (fold (ratio)); higher = stronger signal-on switching upon ATP binding; sequences stand for … in TCGTCGGCAGCGTCAGATGTGTATAAGAGACAGTTTTTTTTTTTTTTTTTTTTTTTTT…TC
Conditions: aptamer strand: ATP DNA aptamer (quencher-CACCTGGGGGAGTATTGCGGAGGAAGG + anchor), 100 nM annealed; ATP concentration: 500 uM; one replicate
Outline: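 Per cluster, summed Cy3 intensity from the target cycles was divided by that from the buffer cycles to give the fluorescence ratio, then averaged per switch-domain sequence. Clusters outside 100-1000 RFU were excluded. The Cy3-labelled switching-strand clusters, on a modified Illumina MiSeq flow-cell, were annealed to 100 nM quencher-labelled ATP aptamer and imaged in selection buffer, then after 15 min with 500 uM ATP at 22 °C, for five cycles with NaOH stripping and re-annealing between them.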
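Further: ATP exposure 15 min at 22 °C before imaging.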

Sequence	switch fluorescence ratio
AAAAAAATCT	1.03
AAAAAACAAC	1.07
AAAAAAGAGC	0.969
AAAAAATCTG	1.13
AAAAAATGAG	0.998
AAAAACAGGC	1.03
AAAAACCATC	1.05
AAAAACGACT	1.05
AAAAACTCGG	1.01
AAAAAGAGAC	1.03
AAAAAGAGGC	1.03
AAAAAGCATT	1.21
AAAAAGTAGA	1.05
AAAACAATGT	1.04
AAAACAGCTT	0.997
AAAACAGTCT	1.02
AAAACATTGG	1.04
AAAACCCCCC	1.15
AAAACCGGGG	1.1
AAAACGTGTG	1.08
AAAACTAGTA	1.01
AAAACTATTG	1.07
AAAACTCCTT	1
AAAACTGCGT	1.01
AAAACTGTTA	0.996

Sequence	switch fluorescence ratio
AAAAGACAAG	1.03
AAAAGGAGCT	0.967
AAAAGGCAAT	1.16
AAAAGGTATG	1.03
AAAAGTCTGG	0.932
AAAAGTTCGA	0.961
AAAAGTTGAG	1.03
AAAATCCGTC	1
AAAATCGCA	1.01
AAAATGCACG	1.01
AAAATGTTGT	0.969
AAAATTAATC	1.05
AAAATTACGC	1.03
AAAATTACGG	1.02
AAAATTAGTG	0.979
AAAATTTAT	1.01
AAACAAAGA	0.956
AAACAACAAA	1.06
AAACACCAAG	1
AAACAGGAAT	1.02
AAACAGTTTA	0.976
AAACATCCGG	0.999
AAACCAGGGT	1.12
AAACCCGAGT	1.02
AAACCCGTAG	1.05

Sequence	switch fluorescence ratio
AAACCGAGT	1.02
AAACCTGTTG	1.14
AAACGACAAG	1.04
AAACGACTGA	1.05
AAACGCAAGG	1.28
AAACGCCCCT	1.12
AAACGGAGG	0.981
AAACGGGTAA	0.979
AAACGTGCTG	1.05
AAACTAAAAC	1.01
AAACTAAGGG	1.01
AAACTAGAAC	1
AAACTATCGA	0.971
AAACTATTGT	1.01
AAACTCAGGT	1.34
AAACTCTGCC	1.51
AAACTGCTAT	1.16
AAACTTAGGG	1.01
AAACTTCAAG	1
AAAGAAGACT	0.93
AAAGAAGTAC	1.16
AAAGACATAT	0.98
AAAGACATCC	1.07
AAAGACCCTA	0.974
AAAGACCTGT	1.01

Sequence	switch fluorescence ratio
AAAGACTGGT	1.04
AAAGAGATTT	0.971
AAAGAGCTTC	0.896
AAAGATAAGA	0.98
AAAGATACGT	1.06
AAAGATGGCC	0.957
AAAGATGGTT	1.06
AAAGCAGCTT	0.998
AAAGCAGTGC	1.3
AAAGCATATA	1.13
AAAGCATGAG	1.03
AAAGCCGCGC	1.09
AAAGCCTATA	0.972
AAAGCCTCAT	1.01
AAAGCGTAA	1.01
AAAGGAACA	0.938
AAAGGACCTC	0.998
AAAGGAGCGG	1
AAAGGCCTTG	1
AAAGGCGTTG	0.966
AAAGGGGCCC	1.01
AAAGGGTGAA	0.97
AAAGGTTT	0.999
AAAGTAACCG	1.01
AAAGTAAGAA	0.985

Sequence	switch fluorescence ratio
AAAGTAAGGG	0.979
AAAGTACAGT	1.17
AAAGTACGTT	1.13
AAAGTCCGCA	2.13
AAAGTGAAAA	1.05
AAAGTGATCA	0.961
AAAGTGCGAA	0.947
AAAGTGTAAT	0.988
AAAGTGTCGG	1.06
AAATACACCG	1.03
AAATACACGG	1.07
AAATACCACC	1.25
AAATACGCAA	6.77
AAATACGCTA	1.3
AAATACGTCG	0.939
AAATACGTTC	0.987
AAATAGAAGT	0.958
AAATAGATGC	1.01
AAATAGGCAC	1.02
AAATAGGGAG	0.962
AAATAGGGGC	0.907
AAATAGTAGT	0.99
AAATATGCGG	0.954
AAATATTCG	0.955
AAATCCGTGG	0.967

Sequence	switch fluorescence ratio
AAATCGACGG	1.04
AAATCGGTTC	1.01
AAATCGTCG	0.957
AAATCTACAG	1.04
AAATCTCGGG	0.983
AAATCTTGCA	1.1
AAATCTTGGG	1
AAATGAAA	1.03
AAATGACCAG	0.98
AAATGCCGAG	0.999
AAATGCTGCT	1.02
AAATGGTGCT	1.05
AAATGGTTGC	0.973
AAATGTGAGA	0.991
AAATGTTGGG	1.01
AAATTACGGT	1.09
AAATTATGCA	0.982
AAATTATGTT	1
AAATTTGTTT	1.07
AAATTTTCAG	0.998
AAATTTTG	1.02
AACAACAAAT	1.03
AACAACGGAC	1.37
AACAAGTACA	1.29
AACAATTTCG	0.987

Sequence	switch fluorescence ratio
AACACCCGTT	0.956
AACACGGCCC	1.04
AACACTTGAA	1.02
AACAGACTCT	0.982
AACAGAGGCC	1.47
AACAGCACTG	1.22
AACAGGAGAT	0.987
AACAGGCTGC	0.987
AACAGGTATG	1.02
AACAGTCGTC	1
AACAGTTAAG	1.02
AACATAGGCC	0.988
AACATATTTG	0.96
AACATCGGAT	0.99
AACATGAACT	1
AACATGTCGG	0.991
AACATTATT	1.05
AACATTGACG	1.21
AACATTTCTA	0.994
AACCAAGGTG	1.02
AACCAGGATG	1.24
AACCCCCGTC	1.08
AACCCCGCGT	1.66
AACCCCGTAA	2.05
AACCCGGGGA	1.02

Sequence	switch fluorescence ratio
AACCCGGTTT	1.11
AACCCTATGG	1.01
AACCGACTAA	1.25
AACCGATAC	2.99
AACCGATTAA	1.01
AACCGCCGGG	1.04
AACCGGGCTA	0.993
AACCGGTCAG	1.06
AACCGGTGGC	1.07
AACCGGTTTG	0.987
AACCGTTTGA	1.02
AACCTACATA	1.18
AACCTGTAAT	1.01
AACCTTAAAA	1.05
AACCTTTATG	1.03
AACCTTTGTG	0.976
AACCTTTTGT	1.02
AACGAGTCCG	1.15
AACGATAGAT	1.08
AACGATATTG	1.02
AACGCCATCC	1.44
AACGCCTTTA	1.04
AACGGAGTTG	0.978
AACGGCCTT	1
AACGGCTGAC	1.13
